Drawing on the supplement of paper PMC4967469, this text covers AUC and IC50 for five cell lines.

pIC50: −log10 of the molar value. Lines with a small IC50 respond at low doses; a limit (>, <) means that the fit lies beyond the doses tested. AUC sums up the same curve from the lowest dose to the 256-fold higher top dose; values near 1 show little effect. For some assays here: The top dose, if marked as inferred, was calculated from the reported fits. For some assays here: An entry number marks a drug with two screens in the source, which often give different values.

What all share (assay): Viability of human cancer cell lines after 72 h of drug (GDSC screen)
Compound in one test: O=S(=O)(O)c1ccc2cc(N=Nc3cc(S(=O)(=O)O)c4cccnc4c3O)ccc2c1 [NSC-87877]
As to conditions: top dose 16 µM; top dose inferred. On the procedure:
(§1)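 Human cancer cell lines in 384-well plates, medium with 10% serum, drug for 72 h over a 256-fold dose range (nine 2-fold or five 4-fold steps up to the top dose). Adherent lines were fixed and stained with the nucleic acid dye Syto60, suspension lines read with resazurin; signal relative to control wells, capped at 0 and 100%. One two-parameter sigmoid per drug and line, fitted in a mixed model over all curves with the slope shared within a line.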

Compound in another test: Cc1c(N)nc([C@H](CC(N)=O)NC[C@H](N)C(N)=O)nc1C(=O)N[C@H](C(=O)N[C@H](C)[C@@H](O)[C@H](C)C(=O)N[C@H](C(=O)NCCc1nc(-c2nc(C(=O)NCCC[S+](C)C)cs2)cs1)[C@@H](C)O)[C@@H](OC1OC(CO)C(O)C(O)C1OC1OC(CO)C(O)C(OC(N)=O)C1O)c1cnc[nH]1 [Bleomycin]
On the procedure:
as §1

Compound in the next test: O=C(Nc1ccc(OC(F)(F)F)cc1)c1sccc1NCc1ccnc2ccccc12 [OSI-930]
As to conditions: top dose 10.24 µM. On the procedure:
as §1

Compound in another test: O=C(Nc1cccc(Nc2ncc(Br)c(NCCc3cnc[nH]3)n2)c1)N1CCCC1 [BX-912]
As to conditions: top dose 10.24 µM; top dose inferred. On the procedure: as §1

Compound in the next test: COc1cc(N2CCC(C(N)=O)CC2)ccc1Nc1nc(N)c(Cl)c(Nc2ccccc2S(=O)(=O)C(C)C)n1 [HG-5-88-01]
To be noted: top dose 10 µM; top dose inferred. On the procedure:
as §1

Compound in another test: CCCC(=O)OCc1ccc(OC(=O)/C=C(C)/C=C/C=C(C)/C=C/C2=C(C)CCCC2(C)C)cc1 [VNLG/124]
To be noted: top dose 5.12 µM; top dose inferred. On the procedure: as §1

Compound in the next test: CN(NC(=O)CC(=O)NN(C)C(=S)c1ccccc1)C(=S)c1ccccc1 [Elesclomol]
To be noted: top dose 0.2 µM; top dose inferred. On the procedure: as §1

Compound in a further test: CC/C(=C(\c1ccccc1)c1ccc(OCCN(C)C)cc1)c1ccccc1 [Tamoxifen]
As to conditions: top dose 5 µM. On the procedure: as §1

Compound in a further test: Cc1ccc(NC(=O)c2ccc(CN3CCN(C)CC3)cc2)cc1Nc1nc(-c2cccnc2)cs1 [Masitinib]
As to conditions: top dose 20 µM. On the procedure:
as §1

Compound in another test: O=C(/C=C/c1ccc(CN(CCO)CCc2c[nH]c3ccccc23)cc1)NO [LAQ824]
As to conditions: top dose 1.024 µM; top dose inferred. On the procedure: as §1

Where [1] appears, read: top dose 50 µM, screen: GDSC drug entry 1378, top dose inferred.
The mark [2] stands for this setting: top dose 64 µM, screen: GDSC drug entry 190.

For orientation: pIC50 means the negative decadic logarithm of the IC50, by convention in mol/L. For the cell line SKN (uterus, adherent), the AUC in the test with NSC-87877 was 0.964; with Bleomycin (setting [1]) it was 0.568; with Bleomycin (setting [2]), 0.826; with OSI-930, 0.944; in the test with BX-912 it was 0.838; in the test with HG-5-88-01 it was 0.965. Moreover, the AUC in the test with VNLG/124 came to 0.957; in the test with Elesclomol it was 0.361; with Tamoxifen it was 0.942; in the test with Masitinib, 0.819; in the test with LAQ824, 0.609. Also, the negative-log IC50 (pIC50) with NSC-87877 was under 4.80; in the test with Bleomycin (setting [1]), 5.30; with Bleomycin (setting [2]) it was 4.30; with OSI-930 it was under 4.99; in the test with BX-912, 5.04; with HG-5-88-01, under 5.00. In addition, the pIC50 is under 5.29 with VNLG/124; 8.32 with Elesclomol; under 5.30 with Tamoxifen; 4.84 in the test with Masitinib; 6.87 with LAQ824.

As for RH-1 (rhabdomyosarcoma, adherent), the AUC turned out to be 0.98 in the test with NSC-87877; 0.05 with Bleomycin (setting [1]); 0.115 with Bleomycin (setting [2]); 0.979 in the test with OSI-930; 0.334 with BX-912; 0.666 with HG-5-88-01. In addition, the AUC with VNLG/124 turned out to be 0.984; in the test with Elesclomol, 0.754; with Tamoxifen, 0.991; in the test with Masitinib, 0.883; with LAQ824, 0.432. The pIC50 was under 4.80 with NSC-87877; over 6.71 with Bleomycin (setting [1]); 6.49 with Bleomycin (setting [2]); under 4.99 with OSI-930; 6.62 with BX-912; 5.78 with HG-5-88-01. For the same cell line, the pIC50 in the test with VNLG/124 was under 5.29; with Elesclomol, 7.24; with Tamoxifen, under 5.30; with Masitinib it was 4.81; with LAQ824, 7.37.

As for RVH-421 (melanoma, adherent), the AUC came to 0.929 in the test with NSC-87877; 0.714 with Bleomycin (setting [1]); 0.452 in the test with Bleomycin (setting [2]); 0.86 with OSI-930; 0.892 with BX-912; 0.957 with HG-5-88-01. In addition, the AUC was 0.952 in the test with VNLG/124; 0.767 with Elesclomol; 0.954 with Tamoxifen; 0.831 in the test with Masitinib; 0.464 in the test with LAQ824. The pIC50 with NSC-87877 was under 4.80; with Bleomycin (setting [1]), 4.80; in the test with Bleomycin (setting [2]), 5.55; in the test with OSI-930, under 4.99; in the test with BX-912, under 4.99; in the test with HG-5-88-01, under 5.00. The negative logarithm of the IC50 (pIC50) with VNLG/124 is under 5.29; with Elesclomol it was 6.99; in the test with Tamoxifen, under 5.30; with Masitinib, 4.71; in the test with LAQ824, 7.31.

CS1 (bone, adherent): the AUC with NSC-87877 came out at 0.939; in the test with Bleomycin (setting [1]) it was 0.331; in the test with Bleomycin (setting [2]) it was 0.654; in the test with OSI-930 it was 0.961; with BX-912 it was 0.906; with HG-5-88-01 it was 0.95. For the same cell line, the AUC with VNLG/124 is 0.977; with Elesclomol, 0.504; in the test with Tamoxifen, 0.982; with Masitinib, 0.837; with LAQ824 it was 0.571. In addition, the pIC50 in the test with NSC-87877 is under 4.80; with Bleomycin (setting [1]) it was 6.00; in the test with Bleomycin (setting [2]) it was 4.95; in the test with OSI-930, under 4.99; with BX-912 it was under 4.99; with HG-5-88-01, under 5.00. In addition, the negative-log IC50 (pIC50) was under 5.29 with VNLG/124; 7.89 with Elesclomol; under 5.30 with Tamoxifen; 4.81 with Masitinib; 6.99 with LAQ824.

Consider SW48 (large intestine, adherent), for which the AUC in the test with NSC-87877 stood at 0.982; in the test with Bleomycin (setting [1]), 0.405; with Bleomycin (setting [2]) it was 0.203; with OSI-930, 0.964; in the test with BX-912, 0.614; with HG-5-88-01, 0.722. For the same cell line, the AUC is 0.979 with VNLG/124; 0.831 with Elesclomol; 0.982 in the test with Tamoxifen; 0.975 with Masitinib; 0.664 with LAQ824. Moreover, the pIC50 in the test with NSC-87877 is under 4.80; with Bleomycin (setting [1]), 5.76; with Bleomycin (setting [2]), 6.27; with OSI-930, under 4.99; in the test with BX-912, 5.88; with HG-5-88-01 it was 5.58. Further, the pIC50 with VNLG/124 was under 5.29; with Elesclomol it was 6.90; in the test with Tamoxifen, under 5.30; in the test with Masitinib, under 4.70; in the test with LAQ824 it was 6.74.
